Laboratory results reported in PubChem BioAssay AID624296 (National Center for Advancing Translational Sciences (NCATS), 2012).
Screen size: about 350,000 compounds; about 9,900 (2.8%) were called active. The shares of active, inactive and inconclusive entries below differ from those in the screen. Calls follow the shape of the dose curve; as a rule, active = well fitted activation curve with a large enough effect; inconclusive = small, poorly fitted or top-dose-only effect; inactive = no such curve, though single readings can be large or run the other way. No potency is given beside an inconclusive call; the fits are too rough.

assay: A quantitative high throughput screen for small molecules that induce DNA re-replication in MCF 10a normal breast cells.; also: nearly all actives have a fitted effect of over 50% in size; details: MCF 10A DNA re-replication, Hoechst nuclear intensity, 48 h; series mostly up to 46.1 µM
Potency is read from the fitted curve at half-maximal effect; tags tell the direction and shape of the fitted curve.

Row | Structure (SMILES) | Potency
1 | O=C(O)/C(=C\c1ccc(Br)cc1)c1ccc(S(=O)(=O)N2CCCCC2)s1 | inconclusive [activator, partial curve, poor fit]
2 | c1ccc(CN2CCN(c3nc(NCc4ccco4)c4ccccc4n3)CC2)cc1 | inconclusive [activator, single point]
3 | COc1cc(C(=O)Nc2ccc(Cl)c(C(F)(F)F)c2)cc(OC)c1OC | inconclusive [activator, single point]
4 | Cc1nc(SCC(=O)N(C)C2(C#N)CCCCC2)c2ccccc2n1 | inconclusive [activator, single point]
5 | CCN(c1ccccc1)S(=O)(=O)c1ccc(Cl)c(C(=O)NCCc2ccc(OC)cc2)c1 | inconclusive [activator, partial curve, poor fit]
6 | O=c1[nH]c(CSc2nc(-c3ccc(F)cc3)cs2)nc2ccccc12 | inactive
7 | Cc1ccc(CSCC(=O)N(C)CC(=O)Nc2ccc(Cl)c(Cl)c2)cc1 | inconclusive [activator, single point]
8 | O=C(NNC(=O)c1ccccc1C(F)(F)F)c1csc(N2CCOCC2)n1 | inactive
9 | COc1ccc(N2CCN(C3CCCN(Cc4cccc(C)c4)C3)CC2)cc1 (stereo not drawn) | inactive
10 | O=C(Nc1ncccn1)c1ccc(C(F)(F)F)cc1 | inconclusive [activator, partial curve, poor fit]
11 | COc1cc2c(cc1OC)C1(Nc3c-2c(Cc2ccccc2)nn3-c2ccccc2)C(=O)Nc2ccccc21 (stereo not drawn) | active: 6.51 µM
12 | Cc1cc(Cl)ccc1NC(=S)NCC(O)c1ccccc1 (stereo not drawn) | inconclusive [activator, single point]
13 | O=C(Nc1nc(-c2ccccc2)cs1)c1ccc(N2CCOCC2)c([N+](=O)[O-])c1 | inconclusive [activator, single point]
14 | C[C@H](NC(=O)c1ccco1)C(=O)Nc1nnc(SCc2ccccc2)s1 | inconclusive [activator, partial curve, poor fit]
15 | COc1cccc(/C=N/NC(=O)CNC(=O)c2cccnc2)c1O | inconclusive [activator, single point]
16 | O=C(C1CCN(S(=O)(=O)c2ccc3ccccc3c2)CC1)N1CCN(c2ncccn2)CC1 | inconclusive [activator, single point]
17 | CC(=O)Oc1ccc(-c2cccc(C(=O)O)c2)cc1 | inconclusive [activator, full curve, poor fit]
18 | O=C(Nc1ccc(S(=O)(=O)N2CCOCC2)cc1)c1ccc(Cl)cc1 | inactive
19 | Cc1ccc(S(=O)(=O)Nc2nc3cc(C)c(C)cc3[nH]2)cc1 | inconclusive [activator, single point]
20 | CN(C)C(=O)c1ccc(Nc2nc(-c3cccs3)nc3ccccc23)cc1 | inconclusive [activator, single point]
21 | CCCCNC(=O)c1cc2n(n1)C(C(F)(F)F)CC(c1ccccc1)N2 (stereo not drawn) | inconclusive [activator, partial curve, poor fit]
22 | c1ccc(N2CC3COc4ccccc4C3=N2)cc1 (stereo not drawn) | active: 13 µM

Row | Structure (SMILES) | Potency
23 | CCc1ccccc1NC(=O)COc1ccc(C(=S)N2CCCC2)cc1 | inconclusive [activator, partial curve, poor fit]
24 | Cc1cc(C(=O)N(C)Cc2ccc(Br)cc2)no1 | inactive
25 | CCn1nc(C)c(/C=C/C(=O)Nc2ccc(C)cc2C)c1C | inconclusive [activator, full curve, poor fit]
26 | Nc1nc2nc(-c3ccccc3)cc(C(F)(F)F)c2s1 | inactive
27 | N=c1n(CC(=O)c2cccc([N+](=O)[O-])c2)c2ccccc2n1Cc1ccccc1 | inconclusive [activator, partial curve, poor fit]
28 | CCOC(=O)c1cc2cc(OCc3ccccc3)ccc2nc1C | inconclusive [activator, single point]
29 | CCc1ccc(N2CC(C(=O)OCC(=O)c3c(N)n(CC(C)C)c(=O)n(C)c3=O)CC2=O)cc1 (stereo not drawn) | inconclusive [activator, partial curve, poor fit]
30 | CC(=O)N(C(C)=O)n1c(C)nc2sc3c(c2c1=O)CCCC3 | inconclusive [activator, full curve, poor fit]
31 | Cc1cc(C)n(-c2nc(SCCN3CCOCC3)c3c4c(sc3n2)CCCC4)n1 | inactive
32 | Oc1cc2c(cc1C(c1ccc(Cl)c(Cl)c1)N1CCCC1)OCO2 (stereo not drawn) | inconclusive [activator, single point]
33 | COc1ccccc1-c1cc(C(=O)N/N=C/c2sccc2C)c2ccccc2n1 | inconclusive [activator, single point]
34 | Cc1ccccc1-n1cnc2c(sc3nc(N4CCOCC4)c4c(c32)CCCC4)c1=O | inconclusive [activator, full curve, poor fit]
35 | COC(=O)C1=CN(C)C=C(C(=O)OC)C1c1ccccc1Cl | inconclusive [activator, single point]
36 | OC(CNCC1CCCO1)Cn1c2ccc(Cl)cc2c2cc(Cl)ccc21 (stereo not drawn) | inconclusive [activator, single point]
37 | CCC(C)Nc1ccc(NC(C)CC)cc1 (stereo not drawn) | active: 2.59 µM
38 | CCN(CC)c1ccc(C=O)c(OC)c1 | inactive
39 | COc1ccc(NC(=O)c2cc(-c3ccc4c(c3)OCO4)on2)cc1OC | inconclusive [activator, partial curve, poor fit]
40 | CCN(CC)c1ccc(C2NC(=O)c3ccccc3N2)cc1 (stereo not drawn) | active: 5.8 µM
41 | CCN(c1ccc(OC)cc1)S(=O)(=O)c1ccc2c(c1)CC(C)N2C(=O)C1CC1 (stereo not drawn) | inactive
42 | O=C(O)CCCCCNC(=O)CSc1nnc(-c2ccco2)n1-c1ccccc1 | inactive
43 | CCOc1ccccc1NC(=O)c1cc(-c2cc(OC)c(OC)c(OC)c2)nc2ccccc12 | inconclusive [activator, single point]
